Screen size: about 45,000 compounds; about 65 (0.1%) were called active. Calls come from the whole dose curve; as a rule, active = well fitted activation curve with a large enough effect; inconclusive = small, poorly fitted or top-dose-only effect; inactive = no such curve, though single readings can be large or run the other way. The list shows a part of the results.
Each compound was assayed against Galactocerebrosidase (Homo sapiens) (UniProt P54803) (assay: A Novel Cell-Based Assay to Identify Small Molecules for B -Galactocerebrosidase). Conditions: 145M-Twi-hGALC-G270D cells (Twitcher mouse brain line with human GALC G270D), HMU-beta-Gal fluorescence, 48 h; series mostly up to 57.5 µM; activation: at the top concentration.
Sequence of UniProt P54803 (P54803 whole entry, looked up): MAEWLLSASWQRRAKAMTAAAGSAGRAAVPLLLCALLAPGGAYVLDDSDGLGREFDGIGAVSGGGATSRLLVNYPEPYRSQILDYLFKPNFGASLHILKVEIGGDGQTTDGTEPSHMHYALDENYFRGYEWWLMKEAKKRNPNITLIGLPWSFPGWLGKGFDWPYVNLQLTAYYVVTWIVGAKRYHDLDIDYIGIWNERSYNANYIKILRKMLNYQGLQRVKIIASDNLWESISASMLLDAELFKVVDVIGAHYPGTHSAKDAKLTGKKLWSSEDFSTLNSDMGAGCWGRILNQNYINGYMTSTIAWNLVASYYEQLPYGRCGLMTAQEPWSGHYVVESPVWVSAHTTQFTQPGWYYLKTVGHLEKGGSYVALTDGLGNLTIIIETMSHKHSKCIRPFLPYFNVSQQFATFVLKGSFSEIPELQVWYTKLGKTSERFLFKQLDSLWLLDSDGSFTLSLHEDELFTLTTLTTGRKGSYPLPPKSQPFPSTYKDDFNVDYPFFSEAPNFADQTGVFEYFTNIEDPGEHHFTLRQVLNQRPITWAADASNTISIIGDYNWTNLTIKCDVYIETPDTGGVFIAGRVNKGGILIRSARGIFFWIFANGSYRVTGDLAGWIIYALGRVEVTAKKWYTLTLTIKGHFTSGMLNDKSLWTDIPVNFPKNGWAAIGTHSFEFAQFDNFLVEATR
Procedure, shortened: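 Brain-derived Twitcher mouse 145M-Twi cells stably expressing human GALC-G270D or wild-type GALC, treated live, then residual GALC activity read by fluorescence of HMU-b-Gal substrate (0.1 mM final) in citrate-phosphate buffer pH 5.2 with sodium taurocholate. Signal increase indicates enhancement.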
Note: 0% is about no effect; nearly all actives have a fitted effect of over 65% in size.

activation, inactive:
COc1ccc(CNC(=O)C(C)Sc2nc(-c3ccccc3)cc(C(F)(F)F)n2)cc1 (configuration not stated) -2.28%, O=C1c2ccccc2C(=O)C1c1ccccc1 -9.96%, CCOc1cc(C(=O)NCc2ccc3c(c2)CCN3C(=O)c2ccc(F)cc2)cc(OCC)c1OCC -14.7%, O=C(NC1CCCC1)c1ccc(CSc2nc3ccncc3n2Cc2cccc(F)c2)cc1 -11.1%, CCCCOc1ccc(C(=O)Nc2ccc3oc(-c4cccnc4)nc3c2)cc1 -18.8%, COc1ccc(OCC(=O)N2CCC(c3nc4ccccc4s3)CC2)cc1 -8.97%, O=C(Cn1ccnc1[N+](=O)[O-])NCc1ccccc1 -6.99%, CCc1ccccc1NC(=O)C1CCN(S(=O)(=O)c2ccccc2)CC1 13.5%, CC(C)OCCCNC(=O)c1cn(C)c2ccc(S(=O)(=O)N3CCCCCC3)cc2c1=O -10.7%, Cc1cccc(C(=O)Nc2ccc(-c3nc4ncccc4o3)cc2C)c1 -15%, CCc1ccc(C(=O)c2cnc3ccc(F)cc3c2S(=O)(=O)c2ccccc2)cc1 -7.86%, CCn1ccc2cc(S(=O)(=O)N3CCC(C(=O)NCCc4ccccc4Cl)CC3)ccc21 -12.2%, Cc1c2cnn(CC(=O)NCC(C)c3ccccc3)c(=O)c2c(C)n1Cc1cccc(Cl)c1 (configuration not stated) -9.4%, COc1ccccc1Cn1cc(C(=O)c2ccc(Cl)cc2)c(=O)c2ccccc21 -1.01%, Cc1cccc(S(=O)(=O)c2cn(Cc3ccccc3)c3cc(N4CCOCC4)c(F)cc3c2=O)c1 -21%, O=C(COc1ccccc1Cl)OCc1cc(=O)n2nc(C3CCCCC3)sc2n1 -17.7%, Cc1ccc(CNC(=O)c2ccc3c(c2)c(C)c(C)n3Cc2ccccc2)o1 -7.79%, Cc1cccc(N2CCN(C(=O)C3CCCN(S(=O)(=O)c4ccc5c(c4)oc(=O)n5C)C3)CC2)c1C (configuration not stated) -9.3%, CCCCOc1ccc(C(=O)NCCc2csc(-c3cccc(F)c3)n2)cc1 -14.6%, CCCCC/C(C=O)=C\c1ccccc1 -13.7%, CCCn1c(=O)c2sccc2n2c(CCCC(=O)NC3CCC(C)CC3)nnc12 (configuration not stated) -1.16%, CC(C)N=C(N)/N=C(\N)Nc1ccc(Cl)cc1 -19.7%, Cc1ccc(-n2ncc(C(=O)NCc3cccs3)c2C2CCN(C(=O)OC(C)(C)C)CC2)cc1 -8.67%, CCc1cccc2c(-c3ccccc3)nc(SCC(=O)Nc3ccccc3OC)nc12 11.8%, Clc1ccc2c(c1)C(N1CCNCC1)=Nc1ccccc1O2 -13.8%, COc1ccccc1NC(=O)C(C)Sc1nnc2ccc3ccccc3n12 (configuration not stated) -12.7%, Cc1ccc(CNC(=O)CN2C(=O)CCn3nc(-c4ccccc4)cc32)cc1 -20.5%, COc1ccc(OC)c(CCNC(=O)CCc2cn(Cc3cc(C)ccc3C)c3ccccc23)c1 -46.6%, O=C(O)CCc1nc(-c2ccccc2)c(-c2ccccc2)o1 -7.39%, O=C(Cn1c(=O)c2cccn2c2ccc(F)cc21)N1CCN(c2ccccc2F)CC1 -17.7%, Cc1ccc(Cl)cc1NS(=O)(=O)c1ccc2c(c1)NC(=O)CCS2 -14%, COc1ccc(Br)cc1CNC(=O)c1cnc2sc(N3CCCC3)nn2c1=O 8.95%, COc1ccc(C(=O)N(Cc2cc(OC)c(OC)c(OC)c2)c2ccccn2)cc1 -33.1%, O=C(Cn1c(=O)nc(-c2ccccc2)c2ccccc21)NCCc1ccc(Cl)cc1 -0.204%, CN1CCN(C(CNC(=O)c2ccccc2F)c2ccc3c(c2)OCO3)CC1 (configuration not stated) -6.11%, Fc1ccc(-n2ncc3c(NCCCn4ccnc4)ncnc32)cc1 3.27%, Cc1ccc(C)c(NC(=O)Cn2nnc(C(=O)NCc3ccccc3Cl)c2N)c1 -3.38%, COc1cccc(C2NC(=O)c3n[nH]c(-c4cccs4)c32)c1 (configuration not stated) -12.1%, Cc1cccc(-n2cc(-c3ccccc3)c3c(N4CCC(C)CC4)ncnc32)c1 -6.14%, CCCCN(CC)CCNC(=O)CCn1cnc2onc(-c3ccc(F)cc3)c2c1=O -15.2%, COc1ccc(NC(=O)c2sc3nc(-c4cc5ccc(OC)cc5oc4=O)[nH]c(=O)c3c2C)cc1 -18.7%, COc1cc(NC(=O)NCC2CCN(Cc3ccccc3Cl)CC2)cc(OC)c1OC -5.89%, COc1ccc(-c2cn3nc(N4CCCC(C(=O)Nc5cc(C)ccc5C)C4)sc3n2)cc1 (configuration not stated) 0.628%, Cc1cc2[nH]c(=O)c(=O)[nH]c2cc1S(=O)(=O)N1CCN(c2cccc(C(F)(F)F)c2)CC1 -2.38%, Cc1ccc2c(c1)C(=O)OC(C(=O)Nc1ncc(Cc3ccc(C(C)C)cc3)s1)C2 (configuration not stated) -17.9%, CCN(C(=O)CCS(=O)(=O)c1cc2[nH]c(=O)c(=O)[nH]c2cc1C)c1ccccc1 -1.15%, COc1ccc(-c2noc(N3CCC(C(=O)Nc4ccc(F)cc4Cl)CC3)n2)cc1 -2.84%, CCOc1ccc(C(c2c(O)cc(C)n(CCOC)c2=O)N2CCN(c3ccccc3)CC2)cc1 (configuration not stated) -14%, CCC1CCCCN1CCCNC(=O)c1[nH]c2ccccc2c1Sc1ccc(Cl)cc1 (configuration not stated) -5.37%, Cc1c2cnn(CC(=O)N3CCCCC3)c(=O)c2c(C)n1Cc1ccc(F)cc1 -13.1%, COc1cccc(CNC(=O)C(CC(C)C)NS(=O)(=O)c2ccc3c(c2)oc(=O)n3C)c1 (configuration not stated) -8.47%, CCC(Sc1nc2ncccc2[nH]1)C(=O)Nc1cccc(OC)c1 (configuration not stated) -8.71%, Cc1ccc(N(CC(=O)N2CCN(c3ccc(Cl)cc3)CC2)S(=O)(=O)c2c(C)nn(C)c2C)cc1 -11%, CCCN(CCC)C(=O)Cn1c(=O)n(-c2cccc(OC)c2)c(=O)c2c(C)c(C(=O)N(C)C)sc21 -12.5%, Cc1ccc2sc(N3CCN(C(=O)CCS(=O)(=O)c4ccc(Cl)cc4)CC3)nc2c1C -22.6%, O=C(NCCc1ccc(F)cc1)C(=O)NCC(c1cccs1)S(=O)(=O)c1ccc(F)cc1 (configuration not stated) -3.55%, Cc1ccc(-c2cn3nc(N4CCCC(C(=O)Nc5ccc(F)cc5)C4)sc3n2)cc1 (configuration not stated) 1.28%, COc1ccc(CNC(=O)Cn2ncc3c4ccccc4n(Cc4cccc(Cl)c4)c3c2=O)cc1 -10.7%, CC(C)(Oc1ccc(CCNC(=O)c2ccc(Cl)cc2)cc1)C(=O)O -15.2%, OCCN1CCN(CCCN2c3ccccc3Sc3ccc(C(F)(F)F)cc32)CC1 -12.7%, Cc1ccc(C)c(S(=O)(=O)c2cn(C)c3cc(N4CCCCC4C)c(F)cc3c2=O)c1 (configuration not stated) 7.6%, COc1ccc(OC)c(NCc2cccn2-c2nnc(N3CCCCC3)s2)c1 -17.2%

Reference: PubChem BioAssay AID1159614 (National Center for Advancing Translational Sciences (NCATS), 2016)
